Test results from article PMC4773014.
These are yes or no findings as the source states them, for the method shown. In cells and extracts the contact can be indirect. Some binding calls cover weakened binding; strength is not graded here. Where a sequence is shown, tags or fusion partners need not be part of it. Each block holds one molecule with its values, some of them ahead of it.

Sequences of proteins named here, by UniProt entry; tags and fusion partners are left off. Residues count along the entry.
UniProt P16144, residues 28-1822: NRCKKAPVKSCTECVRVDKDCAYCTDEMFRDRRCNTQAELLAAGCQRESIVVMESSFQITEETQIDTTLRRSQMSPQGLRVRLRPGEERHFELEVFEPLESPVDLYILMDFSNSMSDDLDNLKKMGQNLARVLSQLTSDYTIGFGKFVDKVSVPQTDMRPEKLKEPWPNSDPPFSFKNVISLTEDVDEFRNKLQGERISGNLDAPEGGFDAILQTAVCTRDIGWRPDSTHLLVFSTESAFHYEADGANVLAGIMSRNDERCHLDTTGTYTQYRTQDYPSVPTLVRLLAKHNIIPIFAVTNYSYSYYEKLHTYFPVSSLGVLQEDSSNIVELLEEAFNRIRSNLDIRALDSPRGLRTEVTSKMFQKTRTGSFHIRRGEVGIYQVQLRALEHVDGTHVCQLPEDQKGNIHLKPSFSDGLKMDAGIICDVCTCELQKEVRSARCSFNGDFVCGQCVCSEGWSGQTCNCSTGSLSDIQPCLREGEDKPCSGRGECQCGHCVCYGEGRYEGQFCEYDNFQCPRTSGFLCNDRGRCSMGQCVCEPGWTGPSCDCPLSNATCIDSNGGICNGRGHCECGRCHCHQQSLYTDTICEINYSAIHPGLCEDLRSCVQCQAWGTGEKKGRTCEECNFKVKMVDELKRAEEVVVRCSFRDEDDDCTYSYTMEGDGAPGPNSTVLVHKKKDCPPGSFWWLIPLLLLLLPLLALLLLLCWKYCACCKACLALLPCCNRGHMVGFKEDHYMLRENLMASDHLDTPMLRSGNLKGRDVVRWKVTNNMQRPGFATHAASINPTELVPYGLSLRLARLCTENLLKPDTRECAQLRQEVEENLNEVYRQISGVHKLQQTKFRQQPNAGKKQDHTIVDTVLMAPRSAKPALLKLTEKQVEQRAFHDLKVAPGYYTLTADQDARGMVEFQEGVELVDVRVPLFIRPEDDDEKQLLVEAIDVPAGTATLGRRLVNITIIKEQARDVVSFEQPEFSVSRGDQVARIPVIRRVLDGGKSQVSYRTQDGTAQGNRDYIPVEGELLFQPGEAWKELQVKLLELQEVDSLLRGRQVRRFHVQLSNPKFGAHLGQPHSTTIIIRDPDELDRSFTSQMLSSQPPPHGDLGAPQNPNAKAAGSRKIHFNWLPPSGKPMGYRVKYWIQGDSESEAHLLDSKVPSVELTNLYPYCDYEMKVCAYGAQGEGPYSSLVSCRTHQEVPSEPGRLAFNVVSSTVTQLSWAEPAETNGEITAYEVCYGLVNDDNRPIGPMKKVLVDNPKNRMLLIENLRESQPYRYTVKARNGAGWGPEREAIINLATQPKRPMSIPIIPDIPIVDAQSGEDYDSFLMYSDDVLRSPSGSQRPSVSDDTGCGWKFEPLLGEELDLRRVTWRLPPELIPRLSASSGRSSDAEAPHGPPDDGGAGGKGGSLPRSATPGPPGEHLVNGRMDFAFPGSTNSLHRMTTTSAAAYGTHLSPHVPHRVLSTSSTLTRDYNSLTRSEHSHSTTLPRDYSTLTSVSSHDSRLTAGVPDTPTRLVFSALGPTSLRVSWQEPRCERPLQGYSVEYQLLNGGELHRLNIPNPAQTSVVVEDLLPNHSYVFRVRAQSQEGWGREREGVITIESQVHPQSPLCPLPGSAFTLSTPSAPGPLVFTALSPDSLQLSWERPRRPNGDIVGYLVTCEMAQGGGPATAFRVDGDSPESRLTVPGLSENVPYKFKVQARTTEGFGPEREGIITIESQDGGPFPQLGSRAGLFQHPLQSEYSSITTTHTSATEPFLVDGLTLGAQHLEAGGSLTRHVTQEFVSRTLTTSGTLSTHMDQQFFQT
UniProt Q07157: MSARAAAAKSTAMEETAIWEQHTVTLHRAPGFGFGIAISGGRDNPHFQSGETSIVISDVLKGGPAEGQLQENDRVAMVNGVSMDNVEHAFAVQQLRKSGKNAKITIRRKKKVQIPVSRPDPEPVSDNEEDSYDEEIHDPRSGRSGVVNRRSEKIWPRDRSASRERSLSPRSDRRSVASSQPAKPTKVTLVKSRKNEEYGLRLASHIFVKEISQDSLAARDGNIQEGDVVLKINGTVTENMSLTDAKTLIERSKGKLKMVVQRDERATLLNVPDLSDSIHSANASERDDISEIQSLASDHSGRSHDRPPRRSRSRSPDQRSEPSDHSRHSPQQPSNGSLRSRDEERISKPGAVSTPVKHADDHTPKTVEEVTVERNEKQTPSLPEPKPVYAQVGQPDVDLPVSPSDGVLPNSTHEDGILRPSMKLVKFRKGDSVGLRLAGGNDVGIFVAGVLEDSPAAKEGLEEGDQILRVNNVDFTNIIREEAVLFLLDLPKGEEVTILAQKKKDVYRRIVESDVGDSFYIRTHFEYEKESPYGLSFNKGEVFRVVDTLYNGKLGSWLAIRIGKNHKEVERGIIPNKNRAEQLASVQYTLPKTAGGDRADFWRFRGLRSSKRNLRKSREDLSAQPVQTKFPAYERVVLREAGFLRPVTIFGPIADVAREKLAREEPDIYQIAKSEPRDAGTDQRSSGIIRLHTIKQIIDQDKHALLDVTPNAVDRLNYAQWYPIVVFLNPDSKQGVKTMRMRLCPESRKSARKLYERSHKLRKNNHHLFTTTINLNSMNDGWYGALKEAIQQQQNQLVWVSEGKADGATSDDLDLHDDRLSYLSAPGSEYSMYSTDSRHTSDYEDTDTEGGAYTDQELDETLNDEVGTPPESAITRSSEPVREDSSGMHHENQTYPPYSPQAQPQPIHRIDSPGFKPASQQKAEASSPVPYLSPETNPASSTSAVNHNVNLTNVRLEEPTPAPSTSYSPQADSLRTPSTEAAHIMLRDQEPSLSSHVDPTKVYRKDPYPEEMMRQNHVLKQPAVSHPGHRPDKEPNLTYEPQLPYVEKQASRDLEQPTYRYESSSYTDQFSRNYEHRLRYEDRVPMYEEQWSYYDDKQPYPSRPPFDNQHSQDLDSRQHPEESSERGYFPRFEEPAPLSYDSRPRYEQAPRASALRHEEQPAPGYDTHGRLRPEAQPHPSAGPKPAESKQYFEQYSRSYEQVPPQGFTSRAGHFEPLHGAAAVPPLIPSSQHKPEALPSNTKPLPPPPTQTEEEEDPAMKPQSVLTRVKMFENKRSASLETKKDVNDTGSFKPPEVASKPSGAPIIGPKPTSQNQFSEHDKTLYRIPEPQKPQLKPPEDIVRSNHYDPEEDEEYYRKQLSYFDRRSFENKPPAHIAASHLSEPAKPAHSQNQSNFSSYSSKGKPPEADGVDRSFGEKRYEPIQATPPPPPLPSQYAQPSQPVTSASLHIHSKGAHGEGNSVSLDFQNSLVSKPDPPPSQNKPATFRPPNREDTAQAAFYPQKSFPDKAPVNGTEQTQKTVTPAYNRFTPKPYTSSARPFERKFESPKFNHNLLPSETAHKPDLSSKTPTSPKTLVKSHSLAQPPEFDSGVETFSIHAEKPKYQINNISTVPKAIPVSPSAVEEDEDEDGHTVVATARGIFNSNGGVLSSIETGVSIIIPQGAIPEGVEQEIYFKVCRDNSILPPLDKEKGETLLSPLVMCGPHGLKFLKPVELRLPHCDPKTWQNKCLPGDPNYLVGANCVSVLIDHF
UniProt P35222: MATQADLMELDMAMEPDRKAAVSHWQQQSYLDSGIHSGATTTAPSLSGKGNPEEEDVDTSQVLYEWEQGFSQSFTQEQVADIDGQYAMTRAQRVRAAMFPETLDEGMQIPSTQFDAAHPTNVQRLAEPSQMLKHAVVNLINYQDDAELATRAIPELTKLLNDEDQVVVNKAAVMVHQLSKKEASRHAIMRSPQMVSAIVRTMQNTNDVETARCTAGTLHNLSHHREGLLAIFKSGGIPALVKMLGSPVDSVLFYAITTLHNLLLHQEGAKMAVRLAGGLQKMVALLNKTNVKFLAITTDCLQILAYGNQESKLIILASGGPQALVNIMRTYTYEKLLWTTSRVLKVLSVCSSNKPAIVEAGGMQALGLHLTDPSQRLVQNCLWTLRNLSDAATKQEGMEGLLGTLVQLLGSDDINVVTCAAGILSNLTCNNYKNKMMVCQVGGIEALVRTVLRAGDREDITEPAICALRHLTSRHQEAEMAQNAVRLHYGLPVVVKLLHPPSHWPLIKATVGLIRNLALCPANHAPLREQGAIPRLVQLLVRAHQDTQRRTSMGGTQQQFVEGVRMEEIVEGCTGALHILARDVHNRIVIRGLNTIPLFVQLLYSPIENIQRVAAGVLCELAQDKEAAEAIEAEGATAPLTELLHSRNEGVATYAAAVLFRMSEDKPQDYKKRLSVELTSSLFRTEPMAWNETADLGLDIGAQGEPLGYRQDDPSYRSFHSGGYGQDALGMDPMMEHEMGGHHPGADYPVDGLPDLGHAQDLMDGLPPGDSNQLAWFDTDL
UniProt Q86T03: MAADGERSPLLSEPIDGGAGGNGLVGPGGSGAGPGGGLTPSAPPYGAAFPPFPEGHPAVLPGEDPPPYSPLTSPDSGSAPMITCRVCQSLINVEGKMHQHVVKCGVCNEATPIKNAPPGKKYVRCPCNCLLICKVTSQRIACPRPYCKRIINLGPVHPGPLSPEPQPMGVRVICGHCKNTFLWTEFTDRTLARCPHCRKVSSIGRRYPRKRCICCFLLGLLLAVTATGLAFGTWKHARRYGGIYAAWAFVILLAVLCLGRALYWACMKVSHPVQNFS

Assays:
human CLCA2 (human) = target: T1, human CLCA2 (human) (UniProt Q9UQC9); assay: co-IP; cDNAs co-transfected (HEK293T named for Fig 1); lysates immunoprecipitated and immunoblotted with antibodies to FLAG, CLCA2 (TVE20) or GFP; buffer with 0.5% NP40
T1 sequence: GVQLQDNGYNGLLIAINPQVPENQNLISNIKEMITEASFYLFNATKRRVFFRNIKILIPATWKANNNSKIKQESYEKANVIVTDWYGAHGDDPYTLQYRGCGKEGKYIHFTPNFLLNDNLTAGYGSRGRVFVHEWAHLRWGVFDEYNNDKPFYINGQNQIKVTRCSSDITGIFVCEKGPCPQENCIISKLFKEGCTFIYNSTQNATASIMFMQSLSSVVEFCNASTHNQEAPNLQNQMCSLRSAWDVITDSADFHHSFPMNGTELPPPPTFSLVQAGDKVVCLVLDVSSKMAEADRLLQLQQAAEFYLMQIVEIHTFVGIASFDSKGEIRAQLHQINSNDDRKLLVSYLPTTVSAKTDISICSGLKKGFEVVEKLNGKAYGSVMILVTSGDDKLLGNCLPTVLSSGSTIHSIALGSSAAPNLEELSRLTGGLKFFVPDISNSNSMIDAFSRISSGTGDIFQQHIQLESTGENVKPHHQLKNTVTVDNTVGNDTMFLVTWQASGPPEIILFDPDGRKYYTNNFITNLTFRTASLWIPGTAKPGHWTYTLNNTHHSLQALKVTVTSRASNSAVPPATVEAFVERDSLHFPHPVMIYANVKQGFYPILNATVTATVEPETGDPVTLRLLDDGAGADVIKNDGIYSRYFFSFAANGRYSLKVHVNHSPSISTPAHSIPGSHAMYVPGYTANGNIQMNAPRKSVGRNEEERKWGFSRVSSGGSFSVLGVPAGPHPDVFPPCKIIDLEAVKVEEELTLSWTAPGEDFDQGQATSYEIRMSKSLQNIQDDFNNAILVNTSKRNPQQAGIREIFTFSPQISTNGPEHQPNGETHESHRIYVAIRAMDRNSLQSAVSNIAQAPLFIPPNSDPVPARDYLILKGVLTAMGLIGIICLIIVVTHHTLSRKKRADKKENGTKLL

[1] = target: T2, GFP fused to the CLCA2 cytoplasmic tail alone (human) (UniProt Q9UQC9); assay: as above
T2 sequence: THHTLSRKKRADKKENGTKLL

integrin beta four = integrin beta four (UniProt P16144); assay: as above
[2] = target: ZO-1 (human (endogenous in HEK293)) (UniProt Q07157); assay: co-IP; HEK293 cells stably expressing CLCA2, CLCA2 lacking the cytoplasmic tail, or EVA1 alone, grown to superconfluency; lysates immunoprecipitated and immunoblotted with antibodies to CLCA2, ZO-1 or beta catenin; endogenous ZO-1 and beta catenin
[3] = target: beta catenin (human (endogenous in HEK293)) (UniProt P35222); assay: as above
[4] = target: T3, Epithelial V-like Antigen 1 (EVA1), FLAG-tagged (human) (UniProt O60487); assay: co-IP; cDNAs co-transfected (HEK293T named for Fig 1); lysates immunoprecipitated and immunoblotted with antibodies to FLAG, CLCA2 (TVE20) or GFP; buffer with 0.5% NP40
T3 sequence: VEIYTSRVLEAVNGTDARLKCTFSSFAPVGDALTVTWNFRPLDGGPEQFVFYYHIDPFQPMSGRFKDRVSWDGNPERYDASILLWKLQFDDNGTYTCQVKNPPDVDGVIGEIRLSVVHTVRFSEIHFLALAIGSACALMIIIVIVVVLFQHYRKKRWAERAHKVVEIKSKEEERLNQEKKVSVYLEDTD

B1: Epithelial V-like Antigen 1 (EVA1), FLAG-tagged (protein, UniProt O60487 27-215)
chain: VEIYTSRVLEAVNGTDARLKCTFSSFAPVGDALTVTWNFRPLDGGPEQFVFYYHIDPFQPMSGRFKDRVSWDGNPERYDASILLWKLQFDDNGTYTCQVKNPPDVDGVIGEIRLSVVHTVRFSEIHFLALAIGSACALMIIIVIVVVLFQHYRKKRWAERAHKVVEIKSKEEERLNQEKKVSVYLEDTD
binding [1]: no binding | binding (human CLCA2 (human)): binds | binding (integrin beta four): no binding

B2: CLCA2 with a FLAG tag, stably expressed in HEK293 (protein, UniProt Q9UQC9 32-943)
chain: GVQLQDNGYNGLLIAINPQVPENQNLISNIKEMITEASFYLFNATKRRVFFRNIKILIPATWKANNNSKIKQESYEKANVIVTDWYGAHGDDPYTLQYRGCGKEGKYIHFTPNFLLNDNLTAGYGSRGRVFVHEWAHLRWGVFDEYNNDKPFYINGQNQIKVTRCSSDITGIFVCEKGPCPQENCIISKLFKEGCTFIYNSTQNATASIMFMQSLSSVVEFCNASTHNQEAPNLQNQMCSLRSAWDVITDSADFHHSFPMNGTELPPPPTFSLVQAGDKVVCLVLDVSSKMAEADRLLQLQQAAEFYLMQIVEIHTFVGIASFDSKGEIRAQLHQINSNDDRKLLVSYLPTTVSAKTDISICSGLKKGFEVVEKLNGKAYGSVMILVTSGDDKLLGNCLPTVLSSGSTIHSIALGSSAAPNLEELSRLTGGLKFFVPDISNSNSMIDAFSRISSGTGDIFQQHIQLESTGENVKPHHQLKNTVTVDNTVGNDTMFLVTWQASGPPEIILFDPDGRKYYTNNFITNLTFRTASLWIPGTAKPGHWTYTLNNTHHSLQALKVTVTSRASNSAVPPATVEAFVERDSLHFPHPVMIYANVKQGFYPILNATVTATVEPETGDPVTLRLLDDGAGADVIKNDGIYSRYFFSFAANGRYSLKVHVNHSPSISTPAHSIPGSHAMYVPGYTANGNIQMNAPRKSVGRNEEERKWGFSRVSSGGSFSVLGVPAGPHPDVFPPCKIIDLEAVKVEEELTLSWTAPGEDFDQGQATSYEIRMSKSLQNIQDDFNNAILVNTSKRNPQQAGIREIFTFSPQISTNGPEHQPNGETHESHRIYVAIRAMDRNSLQSAVSNIAQAPLFIPPNSDPVPARDYLILKGVLTAMGLIGIICLIIVVTHHTLSRKKRADKKENGTKLL
binding [2]: binds | binding [3]: binds

Now from value to molecule:

binding (human CLCA2 (human)): no binding
Molecule: TMEM55b, FLAG-tagged (from UniProt Q86T03 1-277)

binding (human CLCA2 (human)): binds
Molecule: ALAIGSACALMIIIVIVVVLFQHYRK (domain or fragment, UniProt O60487 155-180) [ssGFP tagged with the EVA1 TMS]

binding [4]: binds
B3: human CLCA2 (protein, UniProt Q9UQC9 32-943)
chain: GVQLQDNGYNGLLIAINPQVPENQNLISNIKEMITEASFYLFNATKRRVFFRNIKILIPATWKANNNSKIKQESYEKANVIVTDWYGAHGDDPYTLQYRGCGKEGKYIHFTPNFLLNDNLTAGYGSRGRVFVHEWAHLRWGVFDEYNNDKPFYINGQNQIKVTRCSSDITGIFVCEKGPCPQENCIISKLFKEGCTFIYNSTQNATASIMFMQSLSSVVEFCNASTHNQEAPNLQNQMCSLRSAWDVITDSADFHHSFPMNGTELPPPPTFSLVQAGDKVVCLVLDVSSKMAEADRLLQLQQAAEFYLMQIVEIHTFVGIASFDSKGEIRAQLHQINSNDDRKLLVSYLPTTVSAKTDISICSGLKKGFEVVEKLNGKAYGSVMILVTSGDDKLLGNCLPTVLSSGSTIHSIALGSSAAPNLEELSRLTGGLKFFVPDISNSNSMIDAFSRISSGTGDIFQQHIQLESTGENVKPHHQLKNTVTVDNTVGNDTMFLVTWQASGPPEIILFDPDGRKYYTNNFITNLTFRTASLWIPGTAKPGHWTYTLNNTHHSLQALKVTVTSRASNSAVPPATVEAFVERDSLHFPHPVMIYANVKQGFYPILNATVTATVEPETGDPVTLRLLDDGAGADVIKNDGIYSRYFFSFAANGRYSLKVHVNHSPSISTPAHSIPGSHAMYVPGYTANGNIQMNAPRKSVGRNEEERKWGFSRVSSGGSFSVLGVPAGPHPDVFPPCKIIDLEAVKVEEELTLSWTAPGEDFDQGQATSYEIRMSKSLQNIQDDFNNAILVNTSKRNPQQAGIREIFTFSPQISTNGPEHQPNGETHESHRIYVAIRAMDRNSLQSAVSNIAQAPLFIPPNSDPVPARDYLILKGVLTAMGLIGIICLIIVVTHHTLSRKKRADKKENGTKLL
